These results are taken from PMC4336329 (PLoS ONE, 2015).

The structures appear in SMILES notation. In all, about 310,000 compounds went through this assay and about 2,200 (0.71%) showed an effect of 50% or more. Effects have a minus sign here. Some of the results follow. Where a SMILES comes first, the peptide text is derived from it. [ ]: non-standard residue; d: D form. The star is where a group is joined. ξ: configuration not given here. ξArg(NO2) = N=C(NCCCC(N)C(=O)O)N[N+](=O)[O-]; Bz = O=C(c1ccccc1)*

Sequence of human ether-à-go-go-related gene (hERG) potassium channel (Q12809 whole entry, looked up): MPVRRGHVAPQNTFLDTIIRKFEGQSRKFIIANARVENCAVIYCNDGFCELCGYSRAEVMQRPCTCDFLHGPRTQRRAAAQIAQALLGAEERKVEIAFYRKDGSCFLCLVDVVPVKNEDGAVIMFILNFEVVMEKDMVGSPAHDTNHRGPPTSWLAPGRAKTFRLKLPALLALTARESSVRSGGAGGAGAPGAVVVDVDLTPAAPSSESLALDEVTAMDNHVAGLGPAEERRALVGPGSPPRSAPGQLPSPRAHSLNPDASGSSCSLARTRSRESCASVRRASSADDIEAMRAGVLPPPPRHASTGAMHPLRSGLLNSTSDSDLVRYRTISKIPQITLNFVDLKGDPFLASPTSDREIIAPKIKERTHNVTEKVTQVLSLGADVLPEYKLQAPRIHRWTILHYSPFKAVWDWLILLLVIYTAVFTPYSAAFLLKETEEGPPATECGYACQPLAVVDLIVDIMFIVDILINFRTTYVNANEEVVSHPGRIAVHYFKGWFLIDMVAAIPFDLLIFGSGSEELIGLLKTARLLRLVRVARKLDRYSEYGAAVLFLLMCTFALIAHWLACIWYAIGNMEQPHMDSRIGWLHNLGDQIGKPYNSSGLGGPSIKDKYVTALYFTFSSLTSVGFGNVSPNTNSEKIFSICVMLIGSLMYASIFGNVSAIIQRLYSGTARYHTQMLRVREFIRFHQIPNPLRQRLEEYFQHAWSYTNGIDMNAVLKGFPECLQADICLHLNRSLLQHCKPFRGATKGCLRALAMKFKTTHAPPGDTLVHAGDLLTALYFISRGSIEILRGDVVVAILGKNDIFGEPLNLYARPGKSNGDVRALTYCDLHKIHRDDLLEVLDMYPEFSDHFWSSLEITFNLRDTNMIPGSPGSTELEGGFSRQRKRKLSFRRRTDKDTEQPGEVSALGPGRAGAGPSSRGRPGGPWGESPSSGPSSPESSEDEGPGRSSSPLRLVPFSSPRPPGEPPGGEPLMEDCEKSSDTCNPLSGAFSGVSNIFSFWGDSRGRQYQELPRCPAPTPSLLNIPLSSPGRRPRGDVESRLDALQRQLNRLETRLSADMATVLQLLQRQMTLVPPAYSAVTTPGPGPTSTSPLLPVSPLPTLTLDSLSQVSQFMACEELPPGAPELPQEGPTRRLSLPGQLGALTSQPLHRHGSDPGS

This test concerns the target human ether-à-go-go-related gene (hERG) potassium channel (human, UniProt Q12809). The test is described as follows: primary screen, population patch clamp on CHO cells stably expressing hERG.
In the case of `CN(C)NC1CCS(=O)(=O)C1.Cl` (centres unmarked), the “hERG current change (%, negative = inhibition) at 1uM” value was found to be 12.3%. As for `COc1cc([N+](=O)[O-])ccc1NC(=O)C[n+]1ccccc1C.[Cl-]`, the figure is 13%. With `CN(C(=S)NC(=O)c1ccccc1)C1CCCCC1`, the “hERG current change (%, negative = inhibition) at 1uM” value is listed as -4.47%. For `CCCNC(=O)c1ccccc1NC(=O)c1ccc2c(c1)NC(=O)C(C)S2` (centres unmarked), the “hERG current change (%, negative = inhibition) at 1uM” value is 7.72%. To `CCO[C@@H]1OC(C(=O)NCc2ccccc2)=C[C@H](c2cn(C(C)=O)c3ccccc23)[C@H]1CCCO` belongs 11%. As for `N/C(=N\[N+](=O)[O-])NCCCC(NC(=O)CNC(=O)c1ccccc1)C(=O)O` (centres unmarked) (Bz-Gly-[ξArg(NO2)]-OH), the figure is 9.59%; as for `O=C(NCC1CCCO1)c1nc2c(nnn2Cc2ccccc2Cl)c(=O)[nH]1` (centres unmarked), -1.62%; as for `CCCCN1C(=O)C(=O)N(CC(=O)c2ccc[nH]2)C1=O`, 17.5%. In the case of `COc1ccc(NC(=O)CSc2ncn[nH]2)c([N+](=O)[O-])c1`, the “hERG current change (%, negative = inhibition) at 1uM” value worked out at 1.14%. In the case of `O=C(NCCc1ccncc1)Nc1ccc(Cl)cc1`, the “hERG current change (%, negative = inhibition) at 1uM” value was -7.61%. To `Cn1ncc([N+](=O)[O-])c1C(=O)Nc1ccccc1` belongs 11.8%; to `COc1cc(CCC(=O)OCC(=O)Nc2ccccc2OC(F)F)cc(OC)c1OC`, 3.49%. To `Cc1ccc(Cl)c2c1NC(=O)C2(O)CC(=O)c1ccc(F)cc1` (centres unmarked) belongs 7.1%; to `CCOc1ccc(-c2nnn(CC(=O)c3cc(OC)ccc3OC)n2)cc1`, 6.83%; to `Cc1cccc2nc(=S)n(C(=O)c3ccco3)n12`, 9.54%. As for `COc1ccc(-c2nc(CS(=O)(=O)CC(=O)NCCc3ccccc3)c(C)o2)cc1`, the figure is 28.1%.

`OCC[C@@H]1C[C@@H](O)[C@H](O)[C@@]2(Cc3ccccc3CO2)O1`: the “hERG current change (%, negative = inhibition) at 1uM” value worked out at 13.5%. With `O=C(COC(=O)c1ccccc1NCCO)Nc1cc(C(F)(F)F)ccc1N1CCOCC1`, the “hERG current change (%, negative = inhibition) at 1uM” value was -17.4%.

As to `CS(=O)(=O)Nc1ccc(S(=O)(=O)Nc2nccs2)cc1`, the “hERG current change (%, negative = inhibition) at 1uM” value is given as 6.6%. With `Cc1ccc(C(=O)NCCc2sc(C)nc2C)cc1`, the “hERG current change (%, negative = inhibition) at 1uM” value stood at 24.5%. Turning to `COC(=O)c1sccc1NS(=O)(=O)c1ccccc1`, the “hERG current change (%, negative = inhibition) at 1uM” value stood at 15.6%. As to `N#Cc1c2n(c(=S)n(-c3ccc(OC(F)F)cc3)c1=O)CCCCC2`, the “hERG current change (%, negative = inhibition) at 1uM” value was 1.46%.

In the case of `CCOc1cc(N2CCOCC2)c(OCC)cc1NC(=S)NCCCOC`, the “hERG current change (%, negative = inhibition) at 1uM” value was 9.36%. As for `COc1cc(CNc2ncc(-c3ccc(Br)cc3)n2C)cc(OC)c1O.O=C(O)C(=O)O`, the figure is -25.5%. To `O=C(O)CCC(=O)Nc1ccccc1C(=O)NCc1ccco1` belongs 11.9%. To `Cc1cc(C(=O)COC(=O)CNS(=O)(=O)c2ccc3ccccc3c2)c(C)n1-c1ccccc1` belongs 18.9%.

As to `CCN(Cc1cc(=O)n2cc(Cl)c(C)c(Cl)c2n1)Cc1nc2ccccc2c(=O)[nH]1`, the “hERG current change (%, negative = inhibition) at 1uM” value is -9.62%. Consider `O=C(CSc1ccccc1)Nc1nnc(COc2ccc(Cl)cc2)s1`, for which the “hERG current change (%, negative = inhibition) at 1uM” value worked out at 3.34%. To `Cc1ccc(SCCNCc2ccco2)cc1.Cl` belongs 9.79%; to `CC(=O)/C(N=Nc1ccc(OC(F)(F)F)cc1)=C(\C)O`, 8.19%; to `CCCCCOc1ccc2oc(=O)c3c(c2c1)CCCN3C(=O)CN1CCCC(C(=O)OCC)C1` (centres unmarked), 6.69%.

Regarding `CCOc1cc(C(C(=O)NCC2CCCO2)N(C(=O)Cn2nnc3ccccc32)c2ccc(OC)c(OC)c2)ccc1O` (centres unmarked), the “hERG current change (%, negative = inhibition) at 1uM” value is listed as 12.7%. As for `COc1ccc(NC(=S)Nc2ccc3nsnc3c2)cc1`, the figure is 15.1%; as for `O=C(Nc1cccnc1)c1cc(Br)c(Br)s1`, 5.59%.

For the compound `CCC(N1CCOC1=O)S(=O)(=O)c1ccc(C)cc1` (centres unmarked), the “hERG current change (%, negative = inhibition) at 1uM” value was found to be 11.9%.

Consider `O=S(=O)(NCCCc1ccccc1)c1cccc2nsnc12`, for which the “hERG current change (%, negative = inhibition) at 1uM” value was 7.89%. To `Cl.OC(c1cccc(Cl)c1)c1nccc2ccccc12` (centres unmarked) belongs 13.6%; to `Cc1ccc(CC2SC(N=C(N)N)=NC2=O)cc1` (centres unmarked), 15.2%. On to `CCOC(=O)N1CCC(N2CCN(CCC(C)C)C(CCO)C2)CC1` (centres unmarked), for which the “hERG current change (%, negative = inhibition) at 1uM” value is given as -2.19%. With `COC(=O)[C@H](Cc1ccccc1)NC(=O)N1CCN(c2ccc(F)cc2)CC1`, the “hERG current change (%, negative = inhibition) at 1uM” value is recorded as 6.96%. For the compound `CCN(CC(=O)Nc1c(F)cccc1F)C(=O)Cn1[nH]c(=O)c2ccccc2c1=O`, the “hERG current change (%, negative = inhibition) at 1uM” value is on record as 1.04%. For the compound `Cn1cnnc1SCC(=O)Nc1ccc(Oc2ccccc2)cc1`, the “hERG current change (%, negative = inhibition) at 1uM” value is 10%. On to `CCc1ccc(-c2nc(CSCC(=O)N3CCN(c4ccccn4)CC3)c(C)o2)cc1`, for which the “hERG current change (%, negative = inhibition) at 1uM” value was 6.76%.

For the compound `CCn1c(SCC(N)=O)nnc1-c1cc2c(C)nn(-c3ccccc3)c2s1`, the “hERG current change (%, negative = inhibition) at 1uM” value is listed as -8.6%. To `Cc1cc(=O)oc2cc(OCC(=O)Nc3nccs3)ccc12` belongs 12.9%; to `CCCCN(C(=O)CSc1nnc2ccccn12)c1c(N)n(Cc2ccccc2)c(=O)[nH]c1=O`, 19%. As for `CC1CCN(C(=O)C2CCCN(S(=O)(=O)c3ccc4c(c3)CC(C)N4C(=O)C3CC3)C2)CC1` (centres unmarked), the figure is 9.31%; as for `COc1ccc(OC)c(S(=O)(=O)N/N=C\c2cn(CC(N)=O)c3ccccc23)c1`, 18.4%. Take `O=C(O)CN1CCN(Cc2ccccc2)C1=O`: the “hERG current change (%, negative = inhibition) at 1uM” value was 7.4%. `Cc1ccc(SCc2c(C(=O)N/N=C/c3cccnc3)nnn2-c2nonc2N)cc1`: the “hERG current change (%, negative = inhibition) at 1uM” value is listed as 16.6%.

Turning to `CC(C)(C)c1ccc(C(=O)Nc2ccc(O)c3c(=O)cc(-c4cccc(Cl)c4)oc23)cc1`, the “hERG current change (%, negative = inhibition) at 1uM” value is on record as 11.8%. As for `COc1ccc(C(=O)n2nnc3ccccc32)cc1OC`, the figure is 9.96%.

For `CN(C)CCCNc1oc(-c2ccc(Cl)cc2)nc1C#N`, the “hERG current change (%, negative = inhibition) at 1uM” value is recorded as -6.72%. To `Cc1nn(S(=O)(=O)c2ccc(Cl)cc2)c(C)c1S(=O)(=O)N1CCOCC1` belongs 18.4%; to `Cc1ccc(C)c(S(=O)(=O)N2CCN(CC(=O)NC(C)c3ccccc3)CC2)c1` (centres unmarked), 7.36%; to `COc1ccc(/C=c2\sc3nc(-c4ccccc4OC)nn3c2=O)c(OC)c1`, 6.69%. In the case of `O=C(Nc1ccncc1)C1CCN(S(=O)(=O)c2cccc(C(F)(F)F)c2)CC1`, the “hERG current change (%, negative = inhibition) at 1uM” value is -5.26%.

For the compound `CCOC(=O)C1=C(C)n2c(s/c(=C3\C(=O)Nc4ccccc43)c2=O)=NC1c1ccc(OC)cc1` (centres unmarked), the “hERG current change (%, negative = inhibition) at 1uM” value was 1.88%.

Regarding `CN(C)NC(=O)c1ccc([N+](=O)[O-])s1`, the “hERG current change (%, negative = inhibition) at 1uM” value is reported as 11%. As for `C=CCNc1nc(SC)nc2ccsc12`, the figure is 6.58%; as for `CC(=O)c1cccc(NS(=O)(=O)c2cc(-c3cnc(C4CC4)o3)ccc2C)c1`, 22%. To `CCCN(C(=O)C(NC(=O)c1ccccc1)C(C)C)c1c(N)n(Cc2ccccc2)c(=O)[nH]c1=O` (centres unmarked) belongs -1.72%; to `CCCCNC(=O)c1onc(CSc2ccccn2)c1C(=O)NCCCC`, 3.06%; to `COc1cccc(-c2cc(-c3cccnc3)nc(N)c2C#N)c1`, 2.74%. As for `CCOc1ccc(S(=O)(=O)N2CCN=C2Cc2ccccc2)cc1C`, the figure is 14.4%; as for `CC(C)NC(=O)CN(c1cccc([N+](=O)[O-])c1)S(=O)(=O)c1ccccc1`, 17.6%; as for `CCN(CC(=O)NCc1ccc(Cl)cc1)C(=O)c1c(C)noc1C`, 5.91%.

With `O=C(NC1CCCCC1)C(=O)N(Cc1cccnc1)C(C(=O)NCc1ccco1)c1ccccc1` (centres unmarked), the “hERG current change (%, negative = inhibition) at 1uM” value came out at 5.2%. Turning to `N#Cc1cccc(Nc2c3c(nc4ccccc24)CCC3)c1`, the “hERG current change (%, negative = inhibition) at 1uM” value is -18%. As for `CC1(C)CC(=O)C(N=Nc2cccnc2)=C(O)C1`, the figure is 6.55%; as for `CC1CCC(C(C)C)C(OC(=O)Cn2c(-c3ccc(F)cc3)[n+](C)c3ccccc32)C1.[Cl-]` (centres unmarked), -53.9%; as for `O=c1[nH]c(=O)n(Cc2ccccc2)c(O)c1C=NCCCn1ccnc1`, 0.0049%. Turning to `O=C(CN(C(=O)CSc1nc2ccccc2o1)c1ccccc1)NC1CCCCC1`, the “hERG current change (%, negative = inhibition) at 1uM” value was determined as 8.04%. To `C/C=C/C(=O)OCC(=O)Nc1nc2ccc(C)cc2s1` belongs 0.215%. In the case of `Cc1cc(C)n2nc(SCC(=O)c3cc(C)n(-c4cc(C)on4)c3C)nc2n1`, the “hERG current change (%, negative = inhibition) at 1uM” value is reported as -20.2%. As to `CC(=O)Nc1c(C(N)=O)oc2ccc(Cl)cc12`, the “hERG current change (%, negative = inhibition) at 1uM” value amounted to 7.95%. As for `COC(=O)C1=CN(Cc2cccs2)C=C(C(=O)OC)C1c1cccc(Cl)c1`, the figure is 13.4%; as for `Oc1ccccc1N1CCN(c2nc(-c3cccs3)nc3ccccc23)CC1`, 7.46%.

With `CS(=O)(=O)N(CC(=O)N1CCc2ccccc2C1)c1cccc([N+](=O)[O-])c1`, the “hERG current change (%, negative = inhibition) at 1uM” value came out at 2.04%. As for `C/C(=N\NC(=O)c1cccnc1)c1ccc(-n2ccnc2)cc1`, the figure is -12.7%; as for `COc1ccc(-c2nc(CS(=O)(=O)CC(=O)NC3CCCCC3C)c(C)o2)cc1` (centres unmarked), 15.5%; as for `CSc1nsc(SCC(=O)Nc2cccc(C(=O)O)c2)n1`, 5.11%.

In the case of `CN(C(=O)C(Cl)Cl)c1ccc(OC(=O)c2ccco2)cc1`, the “hERG current change (%, negative = inhibition) at 1uM” value is 16.6%. To `Cc1cc2ncc(C(N)=O)cn2n1` belongs 6.64%. To `N#Cc1ccccc1CSc1nc(O)cc(=O)[nH]1` belongs 15.5%; to `COc1ccc(/C=N/NC(=O)c2cc3cc(OC)c(OC)cc3[nH]2)cc1`, 4.63%; to `Cc1ccc(NC(=O)Nc2ccon2)cc1Cl`, 12.6%.

As for `CCOC(=O)c1c(CC(C)C)csc1NC=O`, the “hERG current change (%, negative = inhibition) at 1uM” value came out at 16%. To `Oc1c(Br)cc(/C=N/n2c(-c3ccccc3)n[nH]c2=S)c(O)c1Br` belongs 11.3%.
